From the supplement of paper PMC8728848
Some of the results follow.

How the values were obtained:
Test in all cases: glycan array binding signal (z-score within array); higher = stronger binding
Settings in all cases: glycan notation: IUPAC condensed, linker removed
[1] = molecular target: Man(a1-3)[Man(a1-6)]Man(a1-6)[Man(a1-3)]Man
Procedure, shortened: (§1)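 Arrays were curated from the Consortium for Functional Glycomics database, 3228 in total, and kept only where the protein sequence was available. Binding is expressed as a within-array Z-score. This score was averaged across arrays of the same protein sequence at different concentrations or buffers and across linkers, and negative values can be read as non-binding.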

[2] = molecular target: Man(a1-3)[Man(a1-6)]Man(a1-6)[Man(a1-3)]Man(b1-4)GlcNAc(b1-4)GlcNAc
Procedure, shortened: as §1

[3] = molecular target: Man(a1-3)[Man(a1-6)]Man(b1-4)GlcNAc(b1-4)GlcNAc
Procedure, shortened: as §1

[4] = molecular target: Man(a1-6)Man
Procedure, shortened: as §1

[5] = molecular target: Man(b1-4)GlcNAc
Procedure, shortened: as §1

[6] = molecular target: Neu5Ac(a2-3)Gal
Procedure, shortened: as §1

[7] = molecular target: Neu5Ac(a2-3)Gal(b1-3)GalNAc
Procedure, shortened: as §1

[8] = molecular target: Neu5Ac(a2-3)Gal(b1-3)GalNAc(b1-3)Gal(a1-4)Gal(b1-4)Glc
Procedure, shortened: as §1

[9] = molecular target: Neu5Ac(a2-3)Gal(b1-3)GalNAc(b1-3)Gal(b1-4)GlcNAc
Procedure, shortened: as §1

[10] = molecular target: Neu5Ac(a2-3)Gal(b1-3)GalNAc(b1-4)[Neu5Ac(a2-3)]Gal(b1-4)Glc
Procedure, shortened: as §1

[11] = molecular target: Neu5Ac(a2-3)Gal(b1-3)GalNAc6S
Procedure, shortened: as §1

[12] = molecular target: Neu5Ac(a2-3)Gal(b1-3)GlcNAc
Procedure, shortened: as §1

[13] = molecular target: Neu5Ac(a2-3)Gal(b1-3)GlcNAc(b1-3)Gal(b1-3)GlcNAc
Procedure, shortened: as §1

[14] = molecular target: Neu5Ac(a2-3)Gal(b1-3)GlcNAc6S
Procedure, shortened: as §1

[15] = molecular target: Neu5Ac(a2-3)Gal(b1-3)[Fuc(a1-4)]GlcNAc
Procedure, shortened: as §1

[16] = molecular target: Neu5Ac(a2-3)Gal(b1-3)[Fuc(a1-4)]GlcNAc(b1-3)Gal(b1-4)[Fuc(a1-3)]GlcNAc
Procedure, shortened: as §1

[17] = molecular target: Neu5Ac(a2-3)Gal(b1-3)[Neu5Ac(a2-3)Gal(b1-4)]GlcNAc
Procedure, shortened: as §1

[18] = molecular target: Neu5Ac(a2-3)Gal(b1-3)[Neu5Ac(a2-6)]GalNAc
Procedure, shortened: as §1

[19] = molecular target: Neu5Ac(a2-3)Gal(b1-4)Glc
Procedure, shortened: as §1

[20] = molecular target: Neu5Ac(a2-3)Gal(b1-4)GlcNAc
Procedure, shortened: as §1

[21] = molecular target: Neu5Ac(a2-3)Gal(b1-4)GlcNAc(b1-2)Man(a1-3)[GlcNAc(b1-2)Man(b1-4)GlcNAc(b1-2)Man(a1-6)]Man(b1-4)GlcNAc(b1-4)GlcNAc
Procedure, shortened: as §1

[22] = molecular target: Neu5Ac(a2-3)Gal(b1-4)GlcNAc(b1-2)Man(a1-3)[Neu5Ac(a2-6)Gal(b1-4)GlcNAc(b1-2)Man(a1-6)]Man(b1-4)GlcNAc(b1-4)GlcNAc
Procedure, shortened: as §1

[23] = molecular target: Neu5Ac(a2-3)Gal(b1-4)GlcNAc(b1-3)Gal(b1-3)GlcNAc
Procedure, shortened: as §1

[24] = molecular target: Neu5Ac(a2-3)Gal(b1-4)GlcNAc(b1-3)Gal(b1-4)GlcNAc
Procedure, shortened: as §1

[25] = molecular target: Neu5Ac(a2-3)Gal(b1-4)GlcNAc(b1-3)Gal(b1-4)GlcNAc(b1-3)Gal(b1-4)GlcNAc
Procedure, shortened: as §1

[26] = molecular target: Neu5Ac(a2-3)Gal(b1-4)GlcNAc(b1-3)Gal(b1-4)[Fuc(a1-3)]GlcNAc
Procedure, shortened: as §1

[27] = molecular target: Neu5Ac(a2-3)Gal(b1-4)GlcNAc(b1-6)[Gal(b1-3)]GalNAc
Procedure, shortened: as §1

[28] = molecular target: Neu5Ac(a2-3)Gal(b1-4)GlcNAc(b1-6)[Neu5Ac(a2-3)Gal(b1-3)]GalNAc
Procedure, shortened: as §1

[29] = molecular target: Neu5Ac(a2-3)Gal(b1-4)GlcNAc6S
Procedure, shortened: as §1

[30] = molecular target: Neu5Ac(a2-3)Gal(b1-4)[Fuc(a1-3)]GlcNAc
Procedure, shortened: as §1

[31] = molecular target: Neu5Ac(a2-3)Gal(b1-4)[Fuc(a1-3)]GlcNAc(b1-3)Gal
Procedure, shortened: as §1

[32] = molecular target: Neu5Ac(a2-3)Gal(b1-4)[Fuc(a1-3)]GlcNAc(b1-3)Gal(b1-4)GlcNAc
Procedure, shortened: as §1

[33] = molecular target: Neu5Ac(a2-3)Gal(b1-4)[Fuc(a1-3)]GlcNAc(b1-3)Gal(b1-4)[Fuc(a1-3)]GlcNAc(b1-3)Gal(b1-4)[Fuc(a1-3)]GlcNAc
Procedure, shortened: as §1

[34] = molecular target: Neu5Ac(a2-3)Gal(b1-4)[Fuc(a1-3)]GlcNAc(b1-6)[Gal(b1-3)]GalNAc
Procedure, shortened: as §1

[35] = molecular target: Neu5Ac(a2-3)Gal(b1-4)[Fuc(a1-3)]GlcNAc6S
Procedure, shortened: as §1

[36] = molecular target: Neu5Ac(a2-3)Gal6S(b1-4)GlcNAc
Procedure, shortened: as §1

[37] = molecular target: Neu5Ac(a2-3)Gal6S(b1-4)[Fuc(a1-3)]GlcNAc
Procedure, shortened: as §1

[38] = molecular target: Neu5Ac(a2-3)GalNAc
Procedure, shortened: as §1

[39] = molecular target: Neu5Ac(a2-3)GalNAc(b1-4)GlcNAc
Procedure, shortened: as §1

[40] = molecular target: Neu5Ac(a2-3)[GalNAc(b1-4)]Gal(b1-4)Glc
Procedure, shortened: as §1

[41] = molecular target: Neu5Ac(a2-3)[GalNAc(b1-4)]Gal(b1-4)GlcNAc
Procedure, shortened: as §1

[42] = molecular target: Neu5Ac(a2-3)[Neu5Ac(a2-6)]GalNAc
Procedure, shortened: as §1

[43] = molecular target: Neu5Ac(a2-6)Gal
Procedure, shortened: as §1

[44] = molecular target: Neu5Ac(a2-6)Gal(b1-4)Glc
Procedure, shortened: as §1

[45] = molecular target: Neu5Ac(a2-6)Gal(b1-4)GlcNAc
Procedure, shortened: as §1

B1: MD-2 (Homo sapiens) (protein)
chain: MLPFLFFSTLFSSIFTEAQKQYWVCNSSDASISYTYCDKMQYPISINVNPCIELKGSKGLLHIFYIPRRDLKQLYFNLYITVNTMNLPKRKEVICRGSDDDYSFCRALKGETVNTTISFSFKGIKFSKGKYKCVVEAISGSPEEMLFCLEFVILHQPNSN
glycan array binding signal (z-score) [1]: -0.348 | glycan array binding signal (z-score) [2]: 0.116 | glycan array binding signal (z-score) [3]: -0.335 | glycan array binding signal (z-score) [4]: 0.081 | glycan array binding signal (z-score) [5]: -0.047 | glycan array binding signal (z-score) [6]: -0.167 | glycan array binding signal (z-score) [7]: 0.056 | glycan array binding signal (z-score) [8]: -0.444 | glycan array binding signal (z-score) [9]: -0.222 | glycan array binding signal (z-score) [10]: -0.293 | glycan array binding signal (z-score) [11]: 0.195 | glycan array binding signal (z-score) [12]: -0.308 | glycan array binding signal (z-score) [13]: -0.361 | glycan array binding signal (z-score) [14]: 0.221 | glycan array binding signal (z-score) [15]: -0.38 | glycan array binding signal (z-score) [16]: -0.308 | glycan array binding signal (z-score) [17]: -0.289 | glycan array binding signal (z-score) [18]: -0.18 | glycan array binding signal (z-score) [19]: -0.127 | glycan array binding signal (z-score) [20]: -0.297 | glycan array binding signal (z-score) [21]: -0.284 | glycan array binding signal (z-score) [22]: -0.394 | glycan array binding signal (z-score) [23]: -0.277 | glycan array binding signal (z-score) [24]: -0.277 | glycan array binding signal (z-score) [25]: -0.321 | glycan array binding signal (z-score) [26]: -0.162 | glycan array binding signal (z-score) [27]: -0.326 | glycan array binding signal (z-score) [28]: -0.253 | glycan array binding signal (z-score) [29]: -0.158 | glycan array binding signal (z-score) [30]: -0.34 | glycan array binding signal (z-score) [31]: -0.504 | glycan array binding signal (z-score) [32]: -0.316 | glycan array binding signal (z-score) [33]: -0.425 | glycan array binding signal (z-score) [34]: -0.243 | glycan array binding signal (z-score) [35]: -0.072 | glycan array binding signal (z-score) [36]: 0.033 | glycan array binding signal (z-score) [37]: -0.201 | glycan array binding signal (z-score) [38]: -0.323 | glycan array binding signal (z-score) [39]: -0.402 | glycan array binding signal (z-score) [40]: -0.412 | glycan array binding signal (z-score) [41]: -0.227 | glycan array binding signal (z-score) [42]: -0.41 | glycan array binding signal (z-score) [43]: -0.384 | glycan array binding signal (z-score) [44]: -0.165 | glycan array binding signal (z-score) [45]: -0.261
